In the supplement of paper PMC10320760:
Single values of this set are uncertain.

B1: Ydj1; a variant is named by its letters at X, in order (parent)
chain: MVKETKFYDILGVPVTATDVEIKKAYRKCALKYHPDKNPSEEAAEKFKEASAAYEILSDPEKRDIYDQFGEDGLSGAGGAGGFPGGGFGFGDDIFSQFFGAGGAQRPRGPQRGKDIKHEISASLEELYKGRTAKLALNKQILCKECEGRGGKKGAVKKCTSCNGQGIKFVTRQMGPMIQRFQTECDVCHGTGDIIDPKDRCKSCNGKKVENERKILEVHVEPGMKDGQRIVFKGEADQAPDVIPGDVVFIVSERPHKSFKRDGDDLVYEAEIDLLTAIAGGEFALEHVSGDWLKVGIVPGEVIAPGMRKVIEGKGMPIPKYGGYGNLIIKFTIKFPENHFTSEENLKKLEEILPPRIVPAIPKKATVDECVLADFDPAKYNRTRASRGGANYDSDEEEQGGEGVQCXXX

Variants of: B1
Test: enrichment factor, frequency at 37 °C / frequency at 25 °C (thermotolerance selection) (ratio); higher = more growth at 37 °C, higher likelihood of farnesylation
Conditions: with Saccharomyces cerevisiae ydj1Δ (yWS304); selective temperature 37 °C; reference temperature 25 °C

| Variant | enrichment factor |
| --- | --- |
| CVY | 0.904 |
| KWH | 1.34 |
| KWQ | 3.56 |
| KWC | 0.178 |
| KWD | 1.52 |
| KWI | 1.06 |
| KWK | 0.151 |
| KWF | 1.13 |
| KWR | 0.207 |
| KWG | 3.19 |
| KWS | 1.81 |
| KWN | 1.64 |
| KWM | 1.16 |
| KWL | 0.882 |
| KWE | 1.75 |
| KWA | 1.61 |
| KWP | 0.19 |
| WVY | 1.27 |
| NWK | 0.111 |
| NWD | 1.09 |
| NWR | 0.2 |
| NWH | 1.86 |
| NWQ | 3.47 |
| NWL | 1.29 |

| Variant | enrichment factor |
| --- | --- |
| NWA | 2.32 |
| NWG | 4.3 |
| NWM | 0.901 |
| NWN | 2.19 |
| NWP | 0.168 |
| NWI | 1.7 |
| NWS | 4.22 |
| NWE | 2.04 |
| NWF | 1.89 |
| AWM | 0.463 |
| AWP | 0.141 |
| AWL | 1.75 |
| AWK | 1.04 |
| AWI | 0.772 |
| AWF | 1.29 |
| AWD | 1.63 |
| AWR | 0.169 |
| AWN | 4.4 |
| AWE | 1.82 |
| AWG | 2.16 |
| AWA | 1.82 |
| AWH | 1.19 |
| AWQ | 1.3 |
| AWC | 0.695 |

| Variant | enrichment factor |
| --- | --- |
| AWS | 3.37 |
| MWM | 0.331 |
| MWN | 1.24 |
| MWQ | 1.12 |
| MWS | 2.22 |
| MWL | 1.85 |
| MWG | 0.842 |
| MWH | 2.11 |
| MWE | 1.64 |
| MWD | 1.05 |
| MWP | 0.236 |
| MWA | 1.74 |
| MWI | 1.41 |
| MWC | 0.386 |
| MWF | 1.22 |
| MWR | 0.234 |
| MWK | 0.246 |
| YWD | 0.305 |
| YWR | 0.0969 |
| YWH | 0.594 |
| YWL | 1.52 |
| YWK | 0.172 |
| YWF | 1.58 |
| YWP | 0.23 |

| Variant | enrichment factor |
| --- | --- |
| YWA | 1.91 |
| YWG | 2.56 |
| YWC | 0.145 |
| YWQ | 2.51 |
| YWM | 1.16 |
| YWE | 0.443 |
| YWS | 3.09 |
| YWN | 2.72 |
| YWI | 1.24 |
| QVY | 1.69 |
| IWD | 1.71 |
| IWK | 0.526 |
| IWI | 1.43 |
| IWP | 0.211 |
| IWG | 2.08 |
| IWL | 1.78 |
| IWN | 1.54 |
| IWC | 0.695 |
| IWM | 1.16 |
| IWA | 0.29 |
| IWF | 0.906 |
| IWS | 2.15 |
| IWR | 1.25 |
| IWQ | 1.54 |

| Variant | enrichment factor |
| --- | --- |
| IWH | 1.64 |
| IWE | 1.19 |
| RWR | 0.121 |
| RWS | 2.32 |
| RWN | 2.17 |
| RWI | 0.935 |
| RWG | 2.19 |
| RWK | 0.146 |
| RWD | 1.46 |
| RWP | 0.131 |
| RWF | 0.92 |
| RWH | 1.85 |
| RWC | 0.695 |
| RWL | 1.05 |
| RWQ | 1.42 |
| RWE | 1.61 |
| RWA | 1.74 |
| RWM | 0.409 |
| QWF | 1.24 |
| QWK | 0.237 |
| QWL | 1.8 |
| QWN | 1.96 |
| QWC | 0.869 |
| QWG | 1.36 |

| Variant | enrichment factor |
| --- | --- |
| QWQ | 3.05 |
| QWA | 1.16 |
| QWE | 2.1 |
| QWR | 0.129 |
| QWD | 1.52 |
| QWM | 1.05 |
| QWI | 1.56 |
| QWS | 2.4 |
| QWP | 0.163 |
| QWH | 2.54 |
| VVY | 1.01 |
| NVY | 2.9 |
| GWC | 0.965 |
| GWI | 1.12 |
| GWE | 0.981 |
| GWG | 2.14 |
| GWF | 1.45 |
| GWP | 0.129 |
| GWM | 0.98 |
| GWK | 0.0699 |
| GWH | 0.486 |
| GWT | 1.66 |
| GWL | 0.692 |
| GWN | 1.81 |

| Variant | enrichment factor |
| --- | --- |
| GWQ | 1.55 |
| GWR | 0.0616 |
| GWD | 0.176 |
| GWS | 1.85 |
| GWA | 4.29 |
| HWK | 0.194 |
| HWF | 1.64 |
| HWP | 0.566 |
| HWR | 0.113 |
| HWQ | 1.8 |
| HWA | 4.85 |
| HWG | 2.07 |
| HWL | 1.27 |
| HWI | 1.63 |
| HWC | 0.463 |
| HWE | 1.12 |
| HWS | 2 |
| HWD | 0.309 |
| HWM | 0.827 |
| HWH | 1.22 |
| HWN | 2.23 |
| EWG | 2.87 |
| EWC | 0.483 |
| EWI | 1.33 |

| Variant | enrichment factor |
| --- | --- |
| EWN | 1.83 |
| EWM | 2.08 |
| EWL | 1.23 |
| EWT | 1.47 |
| EWK | 0.245 |
| EWP | 0.138 |
| EWS | 1.84 |
| EWD | 0.577 |
| EWF | 0.969 |
| EWQ | 2.5 |
| EWH | 1.76 |
| EWE | 1.61 |
| EWR | 0.132 |
| EWA | 6.02 |
| DWP | 0.188 |
| DWI | 0.315 |
| DWR | 0.113 |
| DWC | 0.116 |
| DWA | 1.02 |
| DWH | 0.172 |
| DWQ | 2.53 |
| DWN | 0.348 |
| DWS | 0.499 |
| DWD | 0.143 |

| Variant | enrichment factor |
| --- | --- |
| DWL | 0.382 |
| DWG | 0.371 |
| DWE | 0.15 |
| DWK | 0.147 |
| DWM | 1.99 |
| DWF | 0.388 |
| DWT | 0.403 |
| PVY | 0.93 |
| VWF | 0.165 |
| VWS | 1.16 |
| VWH | 1.66 |
| VWQ | 1.45 |
| VWD | 2.28 |
| VWR | 1.51 |
| VWI | 4.05 |
| VWE | 1.1 |
| VWC | 3.09 |
| VWN | 1.16 |
| VWK | 0.938 |
| VWL | 1.92 |
| VWP | 0.242 |
| VWG | 0.993 |
| VWM | 1.01 |
| VWA | 4.63 |

| Variant | enrichment factor |
| --- | --- |
| TVY | 1.13 |
| CWF | 0.678 |
| CWQ | 0.307 |
| CWI | 0.279 |
| CWD | 0.309 |
| CWC | 0.044 |
| CWE | 0.812 |
| CWL | 0.505 |
| CWN | 0.502 |
| CWM | 0.515 |
| CWP | 0.342 |
| CWS | 0.599 |
| CWG | 0.528 |
| CWA | 0.421 |
| CWR | 0.677 |
| CWK | 0.188 |
| CWH | 0.541 |
| PWH | 1.44 |
| PWL | 1.63 |
| PWF | 1.62 |
| PWC | 0.158 |
| PWI | 1.18 |
| PWQ | 1.42 |
| PWR | 0.138 |

| Variant | enrichment factor |
| --- | --- |
| PWM | 0.703 |
| PWG | 1.37 |
| PWP | 0.181 |
| PWD | 1.11 |
| PWE | 1.75 |
| PWN | 1.75 |
| PWA | 1.18 |
| PWK | 0.236 |
| PWS | 1.46 |
| WWL | 1.69 |
| WWS | 1.61 |
| WWG | 1.17 |
| WWK | 0.283 |
| WWA | 0.708 |
| WWM | 2.51 |
| WWC | 0.0362 |
| WWQ | 1.01 |
| WWD | 0.639 |
| WWI | 1.81 |
| WWE | 0.915 |
| WWH | 1.1 |
| WWR | 0.322 |
| WWP | 1.23 |
| WWF | 1.59 |

| Variant | enrichment factor |
| --- | --- |
| WWN | 1.87 |
| MVY | 1.57 |
| SWC | 0.965 |
| SWQ | 2.57 |
| SWG | 1.29 |
| SWD | 0.798 |
| SWI | 1.39 |
| SWH | 2.12 |
| SWN | 1.78 |
| SWS | 1.2 |
| SWP | 0.174 |
| SWF | 1.76 |
| SWE | 1.82 |
| SWA | 0.827 |
| SWL | 1.41 |
| SWR | 0.124 |
| SWK | 0.172 |
| SWM | 1.47 |
| RVY | 1.1 |
| LWI | 1.68 |
| LWM | 4.05 |
| LWE | 1.72 |
| LWL | 2.08 |
| LWD | 1.6 |

| Variant | enrichment factor |
| --- | --- |
| LWS | 0.515 |
| LWR | 0.239 |
| LWP | 0.151 |
| LWQ | 2.58 |
| LWG | 0.409 |
| LWF | 1.16 |
| LWC | 1.16 |
| LWK | 0.769 |
| LWH | 3.37 |
| LWN | 3.47 |
| LWA | 0.463 |
| FWK | 0.224 |
| FWN | 2.68 |
| FWF | 1.47 |
| FWI | 2.17 |
| FWT | 1.84 |
| FWD | 0.443 |
| FWS | 2.7 |
| FWR | 0.272 |
| FWQ | 1.25 |
| FWP | 1.17 |
| FWL | 1.89 |
| FWC | 0.302 |
| FWM | 1.85 |

| Variant | enrichment factor |
| --- | --- |
| FWE | 0.431 |
| FWH | 0.648 |
| FWG | 2.04 |
| FWA | 2.17 |
| YVY | 2.84 |
| TWP | 0.143 |
| TWL | 2.17 |
| TWQ | 2.51 |
| TWC | 0.869 |
| TWF | 1.38 |
| TWD | 1.52 |
| TWK | 0.379 |
| TWG | 2.03 |
| TWM | 2.32 |
| TWE | 2.26 |
| TWH | 4.32 |
| TWR | 0.336 |
| TWI | 1.32 |
| TWN | 1.88 |
| TWS | 1.65 |
| TWA | 3.47 |
| SVY | 1.24 |
